Measurements as given in the RNAGym collection of RNA variant scans (doi:10.1093/nar/gkz1192).
Read counts are not given, so values of variants with three or more changes are uncertain.

B1: CPEB3 Ribozyme (parent)
chain: UAACAGGGGGCCACAGCAGAAGCGUUCACGUCGCAGCCCCUGUCAGAUUCUGGUGAAUCUGCGAAUUCUGCUGUAUAUCUC

Variants of: B1
Assay: self-cleavage, relative activity (ratio to wild type); higher = more cleavage; in vitro, sequencing
Outline: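 CPEB3 self-cleaving ribozyme mutant libraries were made by rounds of error-prone PCR, barcoded, and transcribed in vitro with T7 RNA polymerase for 5 hours at 37°C. Cleavage occurred during transcription and a 15 min DNase I step before EDTA stop. RNAs were reverse transcribed with template switching and Illumina-sequenced, with DNA sequencing mapping barcodes to variants. Relative activity is the variant's cleaved/total read fraction divided by wild type's (minimum 5 reads), averaged across three batches.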

Row | Variant | self-cleavage
1 | A20U A21U A75G | 0.53
2 | A21G A35G G36A G61A U78C | 0.33
3 | A20U U26C A28G G33U U58C U80C | 0.06
4 | A21C C59U A65G | 0.08
5 | A20U U51C U69A | 0.3
6 | A20U G33A A45G U51A U60C C62A U78C | 0.03
7 | A20U G33A U60A | 0.14
8 | A20U A35G U41C | 0.57
9 | A20U U26A A45G A64U | 0.09
10 | A20U U41A G53U | 0.23
11 | A20U A35G U41C U43C | 0.21
12 | A20U A35G C62U | 0.2
13 | A20U U74A U78A | 0.41
14 | A20U U25C U41C G52C | 0.13
15 | A20U A28C U51A | 0.24
16 | A20U A45C U60A | 0.26
17 | A20U U25A G53A | 0.09
18 | A20U U31C A77G | 0.19
19 | A20U U25A A35C | 0.35
20 | A20U U43C U51C U66A | 0.18
21 | A20U G33C U49C U66C | 0.05

Row | Variant | self-cleavage
22 | A20U A28G G30A | 0.22
23 | A20U A65G U72A | 0.1
24 | A20U A35G U49A U66C | 0.43
25 | A21G A28G G42A U66A | 0.24
26 | A20U A56G A77U | 0.24
27 | A20U A47U A57C A64G U69C U72C | 0.2
28 | A21G A35G A57G U80C | 1.3
29 | A21G A35G G36C U54C A56G U60C | 0.12
30 | A21G A35U C40G U41C U60C | 0.11
31 | A20U C38A A57G U58A U69C U72G | 0.05
32 | A20U U25C U60C G70C | 0.06
33 | A21G A35U U41C U72A | 0.08
34 | A20U A28U U51A U60C | 0.18
35 | A20U G52A U60C U78C | 0.33
36 | A20U C40U A47U U54G U72C U80C | 0.09
37 | A20U U41C U43A A45G C59A U72C | 0.09
38 | A20U U26C U43A A64G | 0.41
39 | A20U U49C G53U | 0.1
40 | A21G A35G U69C | 0.46
41 | A20U G52U G63U | 0.27
42 | A21G A45G U69A | 0.12

Row | Variant | self-cleavage
43 | A21G A45G U49A | 0.25
44 | A20U A45G U74C U80A | 0.18
45 | A21C A47G U49A A56G | 0.08
46 | A20U U31G U60C A77G | 0.07
47 | A21G A45U A57G U58C | 0.22
48 | A20U U72C U78A U80C | 0.26
49 | A20U U49C U72G | 0.13
50 | A20U U43C U54C | 0.16
51 | A20U G55C A64G | 0.22
52 | A20U U26A U66G | 0.52
53 | A20U U48C U51A A57G A64U | 0.11
54 | A20U U25A U26A U60A U66C | 0.05
55 | A20U U43C A57G | 0.19
56 | A21G A28G U31A | 0.31
57 | A20U U31C C68U U69C | 0.31
58 | A20U U25C A35G U72G | 0.2
59 | A21G A28G A35U U43C U69C | 0.31
60 | A20U A28C A56G | 0.09
61 | A21G A35U A45G U72C | 0.09
62 | A21G A35G U43A | 1.1
63 | A20U U26A A28G C40G | 0.21

Row | Variant | self-cleavage
64 | A20U U49C U51C A64G | 0.06
65 | A21G A45U U72C U76C | 0.14
66 | A20U A56U A57G | 0.13
67 | A21G A28G A56U U60A U66C A75G | 0.05
68 | A20U U26C U80C | 0.16
69 | A20U A47U A56G U60G U66C U76C U80A | 0.08
70 | A21C U41G U60C C71A | 0.07
71 | A21G A35U U43C | 0.36
72 | A20U A45C C50A U78A | 0.06
73 | A21G A45G U78C | 0.53
74 | A20U A35U U60C U66C | 0.15
75 | A20G U67C U78C U80C | 0.84
76 | A20U U26A A35G C62U | 0.13
77 | A20U C34A U78C C79U U80C | 0.17
78 | A20U U58C U66C | 0.13
79 | A21G A45G A64G | 0.32
80 | A20U U43C U69A G73C U74A | 0.13
81 | A21G A28G G36C U51C U60A | 0.13
82 | A20U U26A A35U A45U A47G U51A | 0.06
83 | A21C U25C U31A | 0.08
